Experimental data reported in paper PMC2828485.
These are yes or no findings as the source states them, for the method shown. Binding seen in cells or lysates may run through a third protein. Some results given as binding are weak or reduced against the parent protein; the word gives no strength.

Amino acid sequences for entries named in this document (tags omitted).
UniProt Q08024: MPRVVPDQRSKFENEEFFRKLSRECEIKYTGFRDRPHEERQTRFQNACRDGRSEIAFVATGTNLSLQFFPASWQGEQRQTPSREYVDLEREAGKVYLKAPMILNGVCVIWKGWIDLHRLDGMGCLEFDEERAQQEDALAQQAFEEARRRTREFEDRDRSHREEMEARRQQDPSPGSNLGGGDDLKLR

Target: Flag-HA-CBFβ (stably expressed in C2C12) (mouse) (UniProt Q08024)
Test: co-IP; simple-affinity purification on Flag resin of Flag-HA-CBFβ from proliferating C2C12-CBFβ cells (3 g pellet) against C2C12 control cells; western blot

B1: Suv39h1 (endogenous, C2C12) (enzyme, UniProt O54864 1-412)
chain: MAENLKGCSVCCKSSWNQLQDLCRLAKLSCPALGVSKKNLYDFEVEYLCDYKKIREQEYYLVKWRGYPDSENTWEPRQNLKCIRVLKQFHKDLERELVRRHRRSKPPRHLDPNLANYLVQKAKQRRALQRWEQELNAKRSHLGRITVENEVDLDGPPRSFVYINEYRVGEGITLNQVAVGCECQDCLLAPTGGCCPGASLHKFAYNDQGQVRLKAGQPIYECNSRCCCGYDCPNRVVQKGIRYDLCIFRTNDGRGWGVRTLEKIRKNSFVMEYVGEIITSEEAERRGQIYDRQGATYLFDLDYVEDVYTVDAAYYGNISHFVNHSCDPNLQVYNVFIDNLDERLPRIAFFATRTIWAGEELTFDYNMQVDPVDMESTRMDSNFGLAGLPGSPKKRVRIECKCGTTACRKYLF
binding: binds
